# Results: the supplement of paper PMC8728848
# Some of the results follow.
# B1: RS-IIL (Ralstonia solanacearum) (protein)
# chain: AQQGVFTLPANTSFGVTAFANAANTQTIQVLVDNVVKATFTGSGTSDKLLGSQVLNSGSGAIKIQVSVNGKPSDLVSNQTILANKLNFAMVGSEDGTDNDYNDGIAVLNWPLG
# Key:
# Assay in all cases: glycan array binding signal (z-score within array); higher = stronger binding
# Settings in all cases: glycan notation: IUPAC condensed, linker removed
# [1] = target: Neu5Ac(a2-3)Gal(b1-4)[Fuc(a1-3)]GlcNAc(b1-3)Gal(b1-4)[Fuc(a1-3)]GlcNAc(b1-3)Gal(b1-4)[Fuc(a1-3)]GlcNAc
# Summary of the method: (§1)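 Glycan array data came from 3228 arrays in the Consortium for Functional Glycomics database, and only arrays with an available protein sequence were kept. Glycan names were put into IUPAC-condensed notation, and columns mapping to the same glycan were averaged. The binding signal is a within-array Z-score, averaged across arrays of one protein sequence run at different concentrations or buffers and across linkers. A negative Z-score can be read as non-binding.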
# [2] = target: Neu5Ac(a2-3)Gal(b1-4)[Fuc(a1-3)]GlcNAc6S
# Summary of the method: as §1
# [3] = target: Neu5Ac(a2-3)Gal6S(b1-4)GlcNAc
# Summary of the method: as §1
# [4] = target: Neu5Ac(a2-3)Gal6S(b1-4)[Fuc(a1-3)]GlcNAc
# Summary of the method: as §1
# [5] = target: Neu5Ac(a2-3)GalNAc
# Summary of the method: as §1
# [6] = target: Neu5Ac(a2-3)GalNAc(b1-4)GlcNAc
# Summary of the method: as §1
# [7] = target: Neu5Ac(a2-3)[GalNAc(b1-4)]Gal(b1-4)Glc
# Summary of the method: as §1
# [8] = target: Neu5Ac(a2-3)[GalNAc(b1-4)]Gal(b1-4)GlcNAc
# Summary of the method: as §1
# [9] = target: Neu5Ac(a2-3)[Neu5Ac(a2-6)]GalNAc
# Summary of the method: as §1
# [10] = target: Neu5Ac(a2-6)Gal
# Summary of the method: as §1
# [11] = target: Neu5Ac(a2-6)Gal(b1-4)Glc
# Summary of the method: as §1
# [12] = target: Neu5Ac(a2-6)Gal(b1-4)GlcNAc
# Summary of the method: as §1
# [13] = target: Neu5Ac(a2-6)Gal(b1-4)GlcNAc(b1-3)Gal(b1-4)GlcNAc
# Summary of the method: as §1
# [14] = target: Neu5Ac(a2-6)Gal(b1-4)GlcNAc(b1-3)Gal(b1-4)[Fuc(a1-3)]GlcNAc(b1-3)Gal(b1-4)[Fuc(a1-3)]GlcNAc
# Summary of the method: as §1
# [15] = target: Neu5Ac(a2-6)Gal(b1-4)GlcNAc6S
# Summary of the method: as §1
# [16] = target: Neu5Ac(a2-6)GalNAc
# Summary of the method: as §1
# [17] = target: Neu5Ac(a2-6)GalNAc(b1-4)GlcNAc
# Summary of the method: as §1
# [18] = target: Neu5Ac(a2-8)Neu5Ac
# Summary of the method: as §1
# [19] = target: Neu5Ac(a2-8)Neu5Ac(a2-3)Gal(b1-4)Glc
# Summary of the method: as §1
# [20] = target: Neu5Ac(a2-8)Neu5Ac(a2-3)[GalNAc(b1-4)]Gal(b1-4)Glc
# Summary of the method: as §1
# [21] = target: Neu5Ac(a2-8)Neu5Ac(a2-8)Neu5Ac
# Summary of the method: as §1
# [22] = target: Neu5Ac(a2-8)Neu5Ac(a2-8)Neu5Ac(a2-3)Gal(b1-4)Glc
# Summary of the method: as §1
# [23] = target: Neu5Ac(a2-8)Neu5Ac(a2-8)Neu5Ac(a2-3)[GalNAc(b1-4)]Gal(b1-4)Glc
# Summary of the method: as §1
# [24] = target: Neu5Ac(a2-8)Neu5Ac(a2-8)Neu5Ac(a2-8)Neu5Ac(a2-3)[GalNAc(b1-4)]Gal(b1-4)Glc
# Summary of the method: as §1
# [25] = target: Neu5Ac(b1-6)GalNAc
# Summary of the method: as §1
# [26] = target: Neu5Ac(b2-6)Gal(b1-4)GlcNAc
# Summary of the method: as §1
# [27] = target: Neu5Ac9Ac(a2-6)Gal(b1-4)GlcNAc
# Summary of the method: as §1
# [28] = target: Neu5Gc(a2-3)Gal(b1-3)GlcNAc
# Summary of the method: as §1
# [29] = target: Neu5Gc(a2-3)Gal(b1-3)[Fuc(a1-4)]GlcNAc
# Summary of the method: as §1
# [30] = target: Neu5Gc(a2-3)Gal(b1-4)Glc
# Summary of the method: as §1
# [31] = target: Neu5Gc(a2-3)Gal(b1-4)GlcNAc
# Summary of the method: as §1
# [32] = target: Neu5Gc(a2-3)Gal(b1-4)[Fuc(a1-3)]GlcNAc
# Summary of the method: as §1
# [33] = target: Neu5Gc(a2-6)Gal(b1-4)GlcNAc
# Summary of the method: as §1
# [34] = target: Neu5Gc(a2-6)GalNAc
# Summary of the method: as §1
binder,measurement,setting,value
B1,glycan array binding signal (z-score),[1],0.025
same,glycan array binding signal (z-score),[2],-0.294
same,glycan array binding signal (z-score),[3],-0.327
same,glycan array binding signal (z-score),[4],-0.312
same,glycan array binding signal (z-score),[5],-0.389
same,glycan array binding signal (z-score),[6],-0.389
same,glycan array binding signal (z-score),[7],-0.389
same,glycan array binding signal (z-score),[8],-0.381
same,glycan array binding signal (z-score),[9],-0.389
same,glycan array binding signal (z-score),[10],-0.334
same,glycan array binding signal (z-score),[11],-0.386
same,glycan array binding signal (z-score),[12],-0.385
same,glycan array binding signal (z-score),[13],-0.389
same,glycan array binding signal (z-score),[14],0.065
same,glycan array binding signal (z-score),[15],-0.389
same,glycan array binding signal (z-score),[16],-0.388
same,glycan array binding signal (z-score),[17],-0.389
same,glycan array binding signal (z-score),[18],-0.388
same,glycan array binding signal (z-score),[19],-0.377
same,glycan array binding signal (z-score),[20],-0.384
same,glycan array binding signal (z-score),[21],-0.375
same,glycan array binding signal (z-score),[22],-0.389
same,glycan array binding signal (z-score),[23],-0.368
same,glycan array binding signal (z-score),[24],-0.367
same,glycan array binding signal (z-score),[25],-0.389
same,glycan array binding signal (z-score),[26],-0.388
same,glycan array binding signal (z-score),[27],-0.383
same,glycan array binding signal (z-score),[28],-0.388
same,glycan array binding signal (z-score),[29],0.4
same,glycan array binding signal (z-score),[30],-0.385
same,glycan array binding signal (z-score),[31],-0.388
same,glycan array binding signal (z-score),[32],-0.319
same,glycan array binding signal (z-score),[33],-0.388
same,glycan array binding signal (z-score),[34],-0.389
